# The other results are listed elsewhere or left out.
# B1: chr18:52893488:52893489:-_ENSG00000196628_ENST00000354452|hu_mus|motif|central (ssRNA)
# RNA: GGGAGUUCUACAGUCCGACGAUCUAUUUAGACCAUUUCCGCGGAGUUAUGGCAUUUACUCAGUGCUGAUAGGUGGAAAAACGGCUUCAACAGGGAUUUUUUUUUUCCUUAAUACAUGCCAAGAUUGUGUGGCUGUCAAAACAGCAACAGAGGAUUGAGCAUCA
# B2: 112528614_112530920_387_CDS_ENSG00000111300_ENST00000261745|human|control|control (ssRNA)
# RNA: GGGAGUUCUACAGUCCGACGAUCAGUAAAGGCUUCCUCUUGCUUUCCAGUUCUCUGUAAACCAAUUGCCUUUAAAACCUUAGCACAAUGAAGAUCCUUAUGUUUCUUCAACAGUUUAUCUGCUUGCUGAAUUGCCAUUUUAUUCAACAGAGGAUUGAGCAUCA
# B3: 98581856_98581976_8367_CDS_ENSG00000196367_ENST00000456197|human|control|control (ssRNA)
# RNA: GGGAGUUCUACAGUCCGACGAUCUGCACUCGUUUUUGCCCAUGACGCCUGCCAGCUGGAGGUAGCAUUUAACUUGCUGUCGAAUCUUCUGGAAGCAAUCCACGAUAGGAACAGUUGGAAUAGUAUGAAUCCGACUUAAUAUAUCAACAGAGGAUUGAGCAUCA
# B4: chr12:60073987:60073988:-_ENSMUSG00000020986_ENSMUST00000021375|perfect_dup|FALSE|FALSE (ssRNA)
# RNA: GGGAGUUCUACAGUCCGACGAUCCUGGGUCAGAUCUUGACGCAUAAAAUGGUGACGAUAAUAUGAACUCUCAUCAGGACUAUUGUUAAAAACUUGCAGGAAAGAAGAUCUUCUUAAAUGAAACAUAAACUGUGGAUAAAGGGACAACAGAGGAUUGAGCAUCA
# B5: chr2:217001844:217001845:+_ENSG00000079246_ENST00000392132|hu_hu|hu_hu_hu_mus_False|1_28 (ssRNA)
# RNA: GGGAGUUCUACAGUCCGACGAUCACCAACUUGAGGAUUAGAUCUUUUGUCAUAAGCAUAUCGGACGAUGGCGACCAUGUUUAACUCAUCCAAAGCAUGAACGAGAGAGGAAAGUGCAACAGCUGCCGCCUCAUCAUCUCUUGCCAACAGAGGAUUGAGCAUCA
# B6: chr1:163112212:163112213:-_ENSG00000143248_ENST00000313961|hu_hu|hu_hu_hu_mus_False|68_98 (ssRNA)
# RNA: GGGAGUUCUACAGUCCGACGAUCUUUUAUUAUCAGUAAGCAUGAGUUACAUACUAGGCAAAGUAUUGAAUACAAAAAUCAGGAAACAAACACUAUUGGUCCAGAAUUUAAAACUUUAUGAGCGAAGUGCUGGCACAGGACUUACAACAGAGGAUUGAGCAUCA
# B7: chr7:135612270:135612271:-_ENSG00000105887_ENST00000393085|hu_mus|hu_hu_hu_mus_False|1_18 (ssRNA)
# RNA: GGGAGUUCUACAGUCCGACGAUCGUUUUUUUCUGAGAUGUUAAAUAGUACUUCAGUGGAAAACAAAACUUAACCUUUUAUUAAUGCGUGUUGUACCAAAAGCAGACAUUUUAGCUUGCUUCCUUUAAAAAUAUUAAGAACAUUCAACAGAGGAUUGAGCAUCA
# B8: chr15:98781125:98781126:-_ENSMUSG00000072235_ENSMUST00000097014|mus_hu|motif|central (ssRNA)
# RNA: GGGAGUUCUACAGUCCGACGAUCAACAUUCAGGGCUCCAUCAAAUCUCAGGGAAGCAGUGAUGGAGGACACAAUUUGACCGGUUAACCUAUUCAGGUUAGUAUAGGUUGGACGCUCAAUAUCGAGGUUUCUACGACAGAUGUCCAACAGAGGAUUGAGCAUCA
# B9: chrX:45560084:45560085:-_ENSMUSG00000036985_ENSMUST00000037960|mus_mus|FALSE|FALSE (ssRNA)
# RNA: GGGAGUUCUACAGUCCGACGAUCGGGACUACUCGAGAGAAGAUGCAGAGGCUGAGGUCAGCUUUAAAAUCAGGUCGUCUACUAGUGUUGCCACUGGGUCAAACAUUAUCAAGAGCCCUGAACAAGGGACACUGAACUCGGCCGCAACAGAGGAUUGAGCAUCA
# B10: chr10:33214929:33214930:-_ENSG00000150093_ENST00000302278|hu_hu|hu_hu_hu_mus_True|28_28 (ssRNA)
# RNA: GGGAGUUCUACAGUCCGACGAUCAACAAGUUCAUUGAAAAACUCUCCUCUGUCAGUAAGACUAAGCACAUUUUUGUAGCUAAAUGGGCUGGUGCAGUUUUGUUCACUUGUGCAAGGAUUUCUUAGCUUUGCUGGGGUUGUGCUCAACAGAGGAUUGAGCAUCA
# B11: chr8:47723363:47723364:+_ENSMUSG00000031628_ENSMUST00000093517|mus_mus|motif|central (ssRNA)
# RNA: GGGAGUUCUACAGUCCGACGAUCGGAGAAGGACUCGAAUUCCGUUGCCACCUUCCUGUUAACGCGAGUGAGAAUGUGCAUAAAUUCGGGCUUGUGCGCGUACAGCUUCAGCAUGCUGCAAAGGGACUGGAUGAACCACGACCCCAACAGAGGAUUGAGCAUCA
# B12: chr8:104447970:104447971:+_ENSG00000164934_ENST00000297579|hu_mus|FALSE|FALSE (ssRNA)
# RNA: GGGAGUUCUACAGUCCGACGAUCAUACACUUCCCUGCUUCGGCUCUUGUCCACAGGAAAGAUUCUAAUAGACUUAUCAAAGCUGGCAGACACAAAUUCCUUCCCAGUGGGAGAGUAGUCCACAUCAAGUACUGCAGACACGUGCAACAGAGGAUUGAGCAUCA
# B13: chr1:74301520:74301521:+_ENSMUSG00000006304_ENSMUST00000006467|perfect_dup|motif|central (ssRNA)
# RNA: GGGAGUUCUACAGUCCGACGAUCGAAGACUACUGUGACUCUGUCCUUUUUAGACUCAACAUACAUGGUCUCAUCAUCCCGGUAAUGGAUAACUGCCCUGUUCUCUCCUUCCUUGCCCUCUUCUUGGAAUUGGAAGUAUUUUUCCAACAGAGGAUUGAGCAUCA
# B14: chr8:47717725:47717726:+_ENSMUSG00000031628_ENSMUST00000093517|mus_mus|FALSE|FALSE (ssRNA)
# RNA: GGGAGUUCUACAGUCCGACGAUCGAAGUUCUUAUUAUUAAUUAUUAUGCAUAUGCCCAUUUCAGGAUAAUCCAUUUUGUAACUACUGUCCAGAUAGAUCCCAGAGUCCACUGACUUGCUCCCAUGUAUGGUCUUUACUUCAAACAACAGAGGAUUGAGCAUCA
# Molecular target: T1, UNK ZnF1-3 (human, UniProt Q9C0B0 31-174)
# T1 sequence: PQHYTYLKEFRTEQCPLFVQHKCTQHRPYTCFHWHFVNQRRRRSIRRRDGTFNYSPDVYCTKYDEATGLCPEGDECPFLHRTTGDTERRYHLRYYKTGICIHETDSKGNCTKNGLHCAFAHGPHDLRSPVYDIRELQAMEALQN
# Experiment: nsRBNS (natural sequence RNA bind-n-seq); RBNS binding buffer (assumed for nsRBNS): 25 mM Tris pH 7.5, 150 mM KCl, 3 mM MgCl2, 0.01% Triton X-100, 500 ug/ml BSA, 20 U/ml SUPERase-In, 4 C; UNK is unkempt and MSI1 is Musashi-1; names of the RNAs are library labels; protein concentration not given here; high values mean tight binding
row,Binder,binding signal
1,B1,1.14 enrichment R
2,B2,0.634 enrichment R
3,B3,0.944 enrichment R
4,B4,1.41 enrichment R
5,B5,1.54 enrichment R
6,B6,1.56 enrichment R
7,B7,0.63 enrichment R
8,B8,0.693 enrichment R
9,B9,1.18 enrichment R
10,B10,0.709 enrichment R
11,B11,1.2 enrichment R
12,B12,1.04 enrichment R
13,B13,0.602 enrichment R
14,B14,1.06 enrichment R

# From publication PMC12136788
